Several values for one entry are separate records, joined by “and”; a condition that tells them apart may be missing. Equal entries are not always repeated. Inconclusive results, whose numbers are uncertain, are shown with a selection of clear calls. Potencies of inconclusive entries are left out as doubtful fits. The source holds several records for some structures; these can differ, active in one and inactive in another. Activity calls are given as the source filed them. The call rests on the fitted dose curve; in most records, active means well fitted curve in the direction sought with a large enough effect in the repeat runs; inconclusive means weak or mixed curves; inactive means no such curve, though single readings can be large; an effect the other way counts as inactive or inconclusive.
Assay: A CellTox Green Cytotoxicity Assay to monitor cytotoxicity in HepG2 cells - 16 hour (AID 1224876); further: nearly all actives have a fitted effect of over 45% in size
Details: CellTox Green fluorescence; series mostly up to 35.3 µM
Summary of the method: (§1)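 HepG2 cells, 600/well, preincubated 5 h with CellTox Green dye, then exposed to Tox21 compounds in DMSO at 37 C for up to 40 h. Dead-cell DNA fluorescence read at the indicated time point.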
Potency means the concentration at half of the fitted maximal effect; tags describe the fitted curve by direction and shape.

Row | Compound | Potency
1 | CCCC(c1cc(C(C)(C)C)c(O)cc1C)c1cc(C(C)(C)C)c(O)cc1C | active: 44.2 µM
2 | CN(C)c1cccc(O)c1 | inconclusive [activator, partial curve, poor fit]
3 | O=C1c2ccccc2C(=O)N1SC1CCCCC1 | inconclusive [activator, single point]
4 | O=C(Cl)c1c(Cl)c(Cl)c(C(=O)Cl)c(Cl)c1Cl | inactive
5 | N/C(=N\N=C\c1ccc(Cl)cc1)N/N=C/c1ccc(Cl)cc1 | active: 21.3 µM
6 | CCCCCCCCCCCCCCCCCCNC(=O)OC1CCN(C(=O)OC[C@H](COC(=O)N(Cc2cccc[n+]2CC)C(=O)c2ccccc2OC)OC)CC1 | inconclusive [activator, single point]
7 | CCCCCCCCCCCCOC(=O)c1cc(O)c(O)c(O)c1 | active: 48.8 µM and active: 38.9 µM
8 | Cc1cc(CCN2CCN(c3nsc4ccccc34)CC2)cc2c1NC(=O)CC2(C)C | inconclusive [activator, single point]
9 | O=C1C=CC(=O)N1c1ccc(Cc2ccc(N3C(=O)C=CC3=O)cc2)cc1 | active: 13.8 µM
10 | Oc1ccc(-c2ccccc2)c(Cl)c1 | active: 49 µM
11 | CCCCC(CC)CN=C(N)NC(N)=NCCCCCCN=C(N)NC(N)=NCC(CC)CCCC (centres undefined) | active: 8.49 µM
12 | Cc1ccc(C(C)(C)C)c(O)c1 | inconclusive [activator, single point]
13 | CC1=CC(=O)c2ccccc2C1=O | active: 49 µM and active: 26.8 µM
14 | CCCCCCCCCCCCCCCCC(C(=O)O)C(O)(CC(=O)O)C(=O)O (centres undefined) | inconclusive [activator, single point]

Assay: qHTS RealTime-Glo MT Cell Viability Assay in HepG2 cells - 32 hour (AID 1224877); further: nearly all actives have a fitted effect of over 55% in size
Details: RealTime-Glo luminescence; series mostly up to 76.8 µM
Summary of the method: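 HepG2 suspension premixed with RealTime-Glo reagents is plated at 600 cells per well and left 5 h at 37 C/5% CO2. Compounds in DMSO then go in, and bioluminescence reflecting viable cell number is recorded over 40 h.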

Row | Compound | Potency
15 | CCCC(c1cc(C(C)(C)C)c(O)cc1C)c1cc(C(C)(C)C)c(O)cc1C | active: 35.1 µM
16 | O=C1c2ccccc2C(=O)N1SC1CCCCC1 | inconclusive [cytotoxic, partial curve, poor fit]
17 | O=C1c2c(O)ccc([N+](=O)[O-])c2C(=O)c2c([N+](=O)[O-])ccc(O)c21 | inconclusive [cytotoxic, single point]
18 | N/C(=N\N=C\c1ccc(Cl)cc1)N/N=C/c1ccc(Cl)cc1 | inconclusive [cytotoxic, single point]
19 | Cc1cc(CCN2CCN(c3nsc4ccccc34)CC2)cc2c1NC(=O)CC2(C)C | active: 54.9 µM
20 | O=C1C=CC(=O)N1c1ccc(Cc2ccc(N3C(=O)C=CC3=O)cc2)cc1 | active: 12.3 µM
21 | O=C(Nc1ccc(Cl)cc1)Nc1ccc(Cl)c(C(F)(F)F)c1 | inconclusive [cytotoxic, full curve]
22 | CCOC(=O)C1=C(C)NC(C)=C(C(=O)OCC)C1c1ccccc1/C=C/C(=O)OC(C)(C)C | inconclusive [cytotoxic, partial curve]
23 | CC1=CC(=O)c2ccccc2C1=O | inconclusive [cytotoxic, single point]

Assay: A CellTox Green Cytotoxicity Assay to monitor cytotoxicity in HepG2 cells - 24 hour (AID 1224878); further: nearly all actives have a fitted effect of over 45% in size
Details: CellTox Green fluorescence; series mostly up to 76.8 µM
Summary of the method: as §1

Row | Compound | Potency
24 | CCCC(c1cc(C(C)(C)C)c(O)cc1C)c1cc(C(C)(C)C)c(O)cc1C | active: 39.4 µM
25 | CN(C)c1cccc(O)c1 | inconclusive [activator, partial curve, poor fit]
26 | CCCCCCCCOC(=O)c1ccc(O)cc1 | active: 43.6 µM
27 | O=C1c2ccccc2C(=O)N1SC1CCCCC1 | inconclusive [activator, single point]
28 | O=C(Cl)c1c(Cl)c(Cl)c(C(=O)Cl)c(Cl)c1Cl | inactive
29 | N/C(=N\N=C\c1ccc(Cl)cc1)N/N=C/c1ccc(Cl)cc1 | active: 21.3 µM
30 | CCCCCCCCCCCCCCCCCCNC(=O)OC1CCN(C(=O)OC[C@H](COC(=O)N(Cc2cccc[n+]2CC)C(=O)c2ccccc2OC)OC)CC1 | inconclusive [activator, single point]
31 | CC(C)(C)c1ccc(C(=O)CCCN2CCC(OC(c3ccccc3)c3ccccc3)CC2)cc1 | active: 23.9 µM
32 | Cc1cc(CCN2CCN(c3nsc4ccccc34)CC2)cc2c1NC(=O)CC2(C)C | inconclusive [activator, single point]
33 | O=C(Nc1ccc(Cl)cc1)Nc1ccc(Cl)c(C(F)(F)F)c1 | inconclusive [activator, single point]
34 | Cc1ccc(C(C)(C)C)c(O)c1 | inconclusive [activator, single point]
35 | CN(C[C@@H](CC[N+]12CCC(C3CCCCC3)(CC1)CC2)c1ccc(Cl)c(Cl)c1)C(=O)c1cc(C(F)(F)F)cc(C(F)(F)F)c1 | active: 24.5 µM
36 | CCCCCCCCCCCCCCCCC(C(=O)O)C(O)(CC(=O)O)C(=O)O (centres undefined) | inconclusive [activator, single point]
37 | O=C(Nc1ccccc1)c1cc(Cl)ccc1O | inconclusive [activator, single point]
38 | Oc1ccc(Cl)cc1C1CCCC1 | active: 54.9 µM
39 | CS(=O)(=O)CCNCc1ccc(-c2ccc3ncnc(Nc4ccc(OCc5cccc(F)c5)c(Cl)c4)c3c2)o1 | inconclusive [activator, single point]

— PubChem BioAssay (Tox21)
